Experimental data: the supplement of paper PMC4967469
IC50 is the fitted dose that halves viability relative to control wells, and lower means more sensitive; a fit beyond the top or the lowest dose is shown as a bound at that dose. AUC, from the same fit, is the share of area under the viability curve across the 256-fold dose range; values near 1 show little effect. An inferred top dose comes from the curve model; the source does not state it.

Compound: C=CC(=O)Nc1cccc(Nc2nc(NC3CCC(N(C)C)CC3)nc3c2ncn3C(C)C)c1 [WZ3105]
Test: Viability of human cancer cell lines after 72 h of drug (GDSC screen)
Details: top dose inferred
Method: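 Human cancer cell lines in 384-well plates, medium with 10% serum, drug for 72 h over a 256-fold dose range (nine 2-fold or five 4-fold steps up to the top dose). Adherent lines were fixed and stained with the nucleic acid dye Syto60, suspension lines read with resazurin; signal relative to control wells, capped at 0 and 100%. One two-parameter sigmoid per drug and line, fitted in a mixed model over all curves with the slope shared within a line.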

| Cell Line | AUC | IC50 [µM] |
| --- | --- | --- |
| TK (B-cell lymphoma, suspension, top dose 1.28 µM) | 0.935 | > 1.28 |
| TMK-1 (stomach, adherent, top dose 1.28 µM) | 0.929 | > 1.28 |
| TOV-21G (ovary, adherent, top dose 1.28 µM) | 0.982 | > 1.28 |
| TOV-112D (ovary, adherent, top dose 1.28 µM) | 0.647 | 0.205 |
| TT2609-C02 (thyroid, adherent, top dose 1.28 µM) | 0.835 | 0.918 |
| TT (thyroid, adherent, top dose 1.28 µM) | 0.869 | > 1.28 |
| TUR (B-cell lymphoma, suspension, top dose 1.28 µM) | 0.569 | 0.122 |
| TYK-nu (ovary, adherent, top dose 1.28 µM) | 0.932 | > 1.28 |
| U031 (kidney, adherent, top dose 1.28 µM) | 0.978 | > 1.28 |
| U251 (glioma, adherent, top dose 1.28 µM) | 0.743 | 0.38 |
| U-2-OS (osteosarcoma, adherent, top dose 1.28 µM) | 0.981 | > 1.28 |
| U-87-MG (glioma, adherent, top dose 1.28 µM) | 0.832 | 1.02 |
| U-118-MG (glioma, adherent, top dose 1.28 µM) | 0.883 | > 1.28 |
| U-698-M (B-cell leukaemia, suspension, top dose 1.28 µM) | 0.559 | 0.116 |
| UACC-62 (melanoma, adherent, top dose 1.28 µM) | 0.905 | > 1.28 |
| UACC-257 (melanoma, adherent, top dose 1.28 µM) | 0.682 | 0.295 |
| UACC-812 (breast, adherent, top dose 1.28 µM) | 0.991 | > 1.28 |
| UACC-893 (breast, adherent, top dose 1.28 µM) | 0.742 | 0.51 |
| UM-UC-3 (bladder, adherent, top dose 1.28 µM) | 0.744 | 0.378 |
| UMC-11 (lung carcinoid, adherent, top dose 1.28 µM) | 0.83 | 0.687 |
| UWB1.289 (ovary, adherent, top dose 1.28 µM) | 0.879 | > 1.28 |
| VA-ES-BJ (soft tissue, adherent, top dose 1.28 µM) | 0.894 | > 1.28 |

| Cell Line | AUC | IC50 [µM] |
| --- | --- | --- |
| VAL (B-cell lymphoma, suspension, top dose 1.28 µM) | 0.827 | 0.784 |
| VCaP (prostate, adherent, top dose 1.28 µM) | 0.599 | 0.151 |
| VM-CUB-1 (bladder, adherent, top dose 1.28 µM) | 0.964 | > 1.28 |
| VMRC-MELG (melanoma, adherent, top dose 1.28 µM) | 0.986 | > 1.28 |
| VMRC-RCW (kidney, adherent, top dose 1.28 µM) | 0.982 | > 1.28 |
| VMRC-RCZ (kidney, adherent, top dose 1.28 µM) | 0.938 | > 1.28 |
| WIL2-NS (lymphoid neoplasm, suspension, top dose 1.28 µM) | 0.652 | 0.193 |
| WM35 (melanoma, adherent, top dose 1.28 µM) | 0.882 | > 1.28 |
| WM278 (melanoma, adherent, top dose 1.28 µM) | 0.824 | 0.894 |
| WM793B (melanoma, adherent, top dose 1.28 µM) | 0.814 | 0.792 |
| WM1552C (melanoma, adherent, top dose 1.28 µM) | 0.97 | > 1.28 |
| WM-115 (melanoma, adherent, top dose 1.28 µM) | 0.819 | 0.948 |
| WSU-DLCL2 (B-cell lymphoma, suspension, top dose 1.28 µM) | 0.782 | 0.441 |
| WSU-NHL (lymphoid neoplasm, suspension, top dose 1.28 µM) | 0.955 | > 1.28 |
| YAPC (pancreas, adherent, top dose 1.28 µM) | 0.866 | > 1.28 |
| YH-13 (glioma, adherent, top dose 1.28 µM) | 0.937 | > 1.28 |
| YKG-1 (glioma, adherent, top dose 1.28 µM) | 0.748 | 0.419 |
| YMB-1-E (breast, adherent, top dose 1.28 µM) | 0.774 | 0.696 |
| YT (lymphoid neoplasm, suspension, top dose 1.28 µM) | 0.986 | > 1.28 |
| huH-1 (liver, adherent, top dose 1.28 µM) | 0.978 | > 1.28 |
| no-10 (glioma, adherent, top dose 1.28 µM) | 0.743 | 0.472 |
| no-11 (glioma, adherent, top dose 1.28 µM) | 0.85 | > 1.28 |
